Measured values published in PubChem BioAssay AID1508624 (National Center for Advancing Translational Sciences (NCATS), 2021).
Hit rate of the full screen: of about 48,000 compounds, about 120 (0.25%) were called active. Not shown: some 4% with an inconclusive outcome. The call rests on the fitted dose curve; in most records, active means well fitted activation curve with a large enough effect; inconclusive means small, poorly fitted or top-dose-only effect, or another doubt; inactive means no such curve, though single readings can be large or run the other way. The list shows a part of the results.

Assay: Primary qHTS for Identification of Small Molecule Activators of Huntingtin-Antisense Promoter Activity; further: nearly all actives have a fitted effect of over 55% in size
Settings: HEK293 HTT-AS promoter firefly luciferase reporter (activity 0% = vehicle and -100% = no light), 24 h; series mostly up to 57.5 µM; activity change, positive = activation: at the top concentration
In short: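 Firefly luciferase signal from promoter-reporter HEK293 cells was scaled between vehicle (0%) and zero RLU (-100%). Compounds were tested at final concentrations of up to 57.5 uM over 24 h at 37 degrees C. PTC124 at 50 uM final served as control inhibitor.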

Activity change, positive = activation, inactive:
CCOCCCn1c(=N)c(S(=O)(=O)c2ccc(C)cc2)cc2c(=O)n3cccc(C)c3nc21 -4.16%, O=C(NCC(c1ccc2c(c1)OCO2)N1CCN(c2ccccc2)CC1)c1ccccc1F (stereo unspecified) 10.1%, CCOC(=O)c1ccc(OCC2c3cc(OC)c(OC)cc3CCN2C(=O)Cc2ccc(F)cc2)cc1 (stereo unspecified) -26.1%, CC(=O)N1CCCc2cc(S(=O)(=O)N(C)CC(=O)Nc3ccc(F)cc3Cl)ccc21 -27.2%, Cc1ccc(CN2C(=O)c3ccccc3C2C(=O)NC2CCCCCC2)cc1 (stereo unspecified) -10.7%, CCc1ccc(-n2nc(C)c3c(C(=O)Nc4cccc(C(F)(F)F)c4)cc(C)nc32)cc1 -20.2%, Cc1cc(O)c(C(c2ccc(F)cc2)N2CCCCC2)c(=O)n1Cc1ccco1 (stereo unspecified) -6.37%, Cc1cc(Nc2cccc(C(F)(F)F)c2)nc2ccc(NC(=O)c3ccc(N(C)C)cc3)cc12 -14.5%, CCOc1ccccc1NC(=O)c1c(C)cc(C)nc1SCC(=O)c1cccc(OC)c1 -12.7%, COc1ccc(CNC(=O)CCn2nc(C)c3c(C)n(-c4ccccc4)nc3c2=O)cc1OC 3.84%, Cc1cccn2c(=O)c(/C=C(\C#N)c3nc4ccccc4n3C)c(Oc3ccc(Br)cc3)nc12 -12%, O=C(CN1CCN(c2ccc(Cl)cc2)CC1)Nc1ccc(F)cc1F 15.5%, Cc1ccc(NC(=O)CCCn2nc(C)c3c(C)n(-c4ccccc4)nc3c2=O)cc1Cl 3.96%, Cc1cc(C)cc(NC(=O)CSc2nccn2-c2ccccc2)c1 -26.3%, Cc1cc(Br)ccc1NC(=O)c1cc2c(=O)n(C)c3cc(Cl)ccc3c2s1 -2.36%, O=C(NC1CC(=O)N(c2ccccc2)C1)C1CCCCC1 (stereo unspecified) -10.2%, Cc1cccc2nc(-c3cccnc3)c(Nc3ccc(C(C)C)cc3)n12 -33.4%, COc1ccc(NC(=O)C2=C(C)Nc3nc(SCc4ccccc4C)nn3C2c2ccc(Br)cc2)cc1 (stereo unspecified) -9.25%, Cc1cccc(NC(=O)C2CCN(S(=O)(=O)c3cccc4nsnc34)CC2)c1C -20.7%, NCCCC[C@H](N[C@@H](CCc1ccccc1)C(=O)O)C(=O)N1CCC[C@H]1C(=O)O -0.098%, Cc1ccc(-c2cc(N)n3nc(-c4ccc(C)cc4)cc3n2)cc1 5.23%, CCOC(=O)c1noc2ncnc(Nc3ccc(C)c(F)c3)c12 9.14%, CCOC(=O)c1noc2ncnc(N(CCC(=O)OC)c3ccccc3)c12 -12.6%, COc1ccc(OC)c(C2CC(=O)c3c([nH]c(C(=O)OC4CCC(C)CC4)c3C)C2)c1 (stereo unspecified) -19.5%, Cc1ccc2c(c1)sc1nc(=O)n(-c3ccc(Cl)cc3)c(=O)n12 15.3%, CN1CCN(CCCNC(=O)Cn2c(-c3cccs3)cc3ccccc32)CC1 -13.7%, CC(CC(=O)NCc1ccc(Cl)cc1)CC1=NS(=O)(=O)c2ccccc2N1 (stereo unspecified) -21.4%, O=C(Cn1cc(SCc2ccc(C(F)(F)F)cc2)c2ccccc21)N1CCCCC1 -6.13%, COc1ccc2c(CNCc3ccc(Cl)cc3)c(C(=O)O)n(Cc3ccccc3C)c2c1 -26.3%, CCc1cccc2c(-c3ccccc3)nc(SCC(=O)Nc3ccccc3)nc12 2.47%, COc1ccc(N2CCN(CCCNC(=O)C3COc4ccc(OC)cc4C3)CC2)cc1 (stereo unspecified) -24.1%, COc1ccc(-c2cc(C)no2)cc1S(=O)(=O)NCc1ccc(OC(C)C)cc1 -29.2%, CCCCOCCOc1nc(-c2ccc(C(=O)O)c(F)c2)sc1C 14.9%, COc1ccc(S(=O)(=O)c2cn(C)c3cc(N4CCCCC4)c(F)cc3c2=O)cc1 -15.2%, CC(=O)c1ccc(N2CCN(c3nc4c(S(=O)(=O)c5ccccc5)nnn4c4ccc(Cl)cc34)CC2)cc1 -1.21%, Cc1c(-c2nsc(NC(=O)c3ccc(Cl)cc3)n2)nnn1-c1ccc(C(C)C)cc1 -22.1%, COc1ccc2c(CNCc3ccc(C)o3)c(C(=O)O)n(Cc3ccccc3)c2c1 -18.8%, CCOc1cc(-c2nc(-c3ccc(-c4ccc(C)cc4)nc3OC)no2)cc(OCC)c1OCC -10.3%, COc1ccc(Cl)cc1NC(=O)Cn1c2ncccc2c(=O)n1-c1ccc(C)c(C)c1 -10.5%, Cc1cc(C)cc(N(CC(=O)Nc2cccc(C)c2C)S(=O)(=O)c2c(C)[nH]c(=O)[nH]c2=O)c1 -15.1%, COc1ccc(C2C=C(c3ccccc3)Nc3nc(NC(=O)c4ccc(C)cc4)nn32)cc1 (stereo unspecified) -11.7%, Cc1ccc(-n2nc3c(=O)n(CC(=O)Nc4ccccc4F)nc(C)c3c2C)c(C)c1 -32.6%, COC(=O)c1ccc(Cl)cc1NC(=O)N1CC(C)Oc2ccccc21 (stereo unspecified) -15.9%, CCOC(=O)c1ccc(NC(=O)c2cc3cc(C)ccc3n2C)cc1 -16.6%, Cc1ccc(NC(=O)Nc2nnc(N(C)Cc3ccccc3)s2)cc1 -12%, Cc1cc(NS(=O)(=O)c2ccc(NC(=O)COc3ccc(Cl)cc3)cc2)nc(C)n1 -12.4%, CN(C(=O)c1cc(-c2ccccc2O)on1)c1ccccc1 9.7%, COc1ccc(S(=O)(=O)N2CCC(c3ccncc3)CC2)cc1Cl -38.8%, CCCCOc1c(Cl)cc(C(=O)N(Cc2ccc(C)o2)C2CCS(=O)(=O)C2)cc1Cl (stereo unspecified) -64.8%, Cc1cc(C)c2oc(C(=O)N(Cc3ccc(F)cc3)C3CCS(=O)(=O)C3)cc(=O)c2c1 (stereo unspecified) -5.46%, CSc1ccc(CCNc2ncnc3onc(C)c23)cc1 -79.2%, CCOC(=O)c1c(C)oc2ccc(N(C(=O)Oc3ccccc3)S(=O)(=O)c3ccccc3)cc12 -7.95%, CCOc1ccc(/C=C(\C#N)c2nc(-c3cc4ccccc4oc3=O)cs2)c(OCC)c1 -7.5%, CCN1CCN(C(c2ccc(OC)cc2)c2c(O)cc(C)n(CCOC)c2=O)CC1 (stereo unspecified) -3.84%, COc1ccc(C(CNC(=O)COc2ccc(C)cc2)N2CCCCC2)cc1 (stereo unspecified) 8.68%, COc1ccccc1NC(=O)c1c(NCc2sccc2C)sc2c1CCCCC2 -5.58%, CN(C(=O)Cn1c(=O)n(CCCS(=O)(=O)C2CCCCC2)c(=O)c2ccccc21)c1ccccc1 -11.4%, CN(C)CCN(Cc1ccco1)S(=O)(=O)c1cc2c(cc1Cl)NC(=O)CO2 -9.49%, COc1ccccc1CCNC(=O)CCc1c(C)c2cc3c(C)coc3c(C)c2oc1=O -9.9%, O=C(Cn1c(=O)n(Cc2ccco2)c(=O)c2oc3ccccc3c21)Nc1ccc(F)cc1F -24.1%, Cc1cn2c(=O)cc(COc3ccc(NC(=O)c4cccc(F)c4)cc3)nc2s1 3.89%
